This test concerns Staphylococcus epidermidis strains. Briefly: Antibiotic susceptibility, disk diffusion method on Mueller-Hinton agar. The class given is cell-based. (A growth-free zone around the sample is the usual read-out of agar diffusion tests.)
Where [1] appears, read: strain 2/2, disk diffusion, Mueller-Hinton agar, NCCLS guidelines.
Where [2] appears, read: strain 3/28, disk diffusion, Mueller-Hinton agar, NCCLS guidelines.
[3] abbreviates: strain 5/6, disk diffusion, Mueller-Hinton agar, NCCLS guidelines.
Setting [4] is: strain 5/8, disk diffusion, Mueller-Hinton agar, NCCLS guidelines.
The mark [5] stands for this setting: strain 5/25, disk diffusion, Mueller-Hinton agar, NCCLS guidelines.
Where [6] appears, read: strain 9/1, disk diffusion, Mueller-Hinton agar, NCCLS guidelines.
Where [7] appears, read: strain 10/28, disk diffusion, Mueller-Hinton agar, NCCLS guidelines.
[8] abbreviates: strain 12/14, disk diffusion, Mueller-Hinton agar, NCCLS guidelines.
Where [9] appears, read: strain 12/26, disk diffusion, Mueller-Hinton agar, NCCLS guidelines.
[10] abbreviates: strain SE, disk diffusion, Mueller-Hinton agar, NCCLS guidelines, disk content as in antibiotic code.

Like-named read-outs stand apart in the source and are kept apart here.

Take `Cc1ncc([N+](=O)[O-])n1CCO` [M80, metronidazole]: the antibiotic susceptibility test entry by setting is: under setting [1], “R”; under setting [2], “R”; under setting [3], “R”; under setting [4], “R”; under setting [5], “R”; under setting [6], “R”. Besides, the antibiotic susceptibility test result is “R” under setting [7], “R” under setting [8], “R” under setting [9] and “R” under setting [10].

As for `CO[C@H]1/C=C/O[C@@]2(C)Oc3c(C)c(O)c4c(O)c(c(/C=N/N5CCN(C)CC5)c(O)c4c3C2=O)NC(=O)/C(C)=C\C=C\[C@H](C)[C@H](O)[C@@H](C)[C@@H](O)[C@@H](C)[C@H](OC(C)=O)[C@@H]1C` [RF30, rifampicin], the antibiotic susceptibility test result was “I” under setting [1]; “S” under setting [2]; “S” under setting [3]; “S” under setting [4]; “S” under setting [5]; “S” under setting [6]. Further, the antibiotic susceptibility test result under setting [7] is “S”, the antibiotic susceptibility test result under setting [8] is recorded as “R”, the antibiotic susceptibility test result under setting [9] is “S” and the antibiotic susceptibility test result under setting [10] is “R”.

For `CC1(C)S[C@@H]2[C@H](NC(=O)[C@H](N)c3ccccc3)C(=O)N2[C@H]1C(=O)O` [AM10, ampicillin], the antibiotic susceptibility test result reads like this: under setting [1], “R”; under setting [2], “S”; under setting [3], “R”; under setting [4], “R”; under setting [5], “R”; under setting [6], “R”. In addition, the antibiotic susceptibility test entry is reported as “R” under setting [7], “R” under setting [8], “R” under setting [9] and “R” under setting [10].

Turning to `Cc1onc(-c2ccccc2Cl)c1C(=O)N[C@@H]1C(=O)N2[C@@H]1SC(C)(C)[C@@H]2C(=O)O` [CX1, cloxacillin], the antibiotic susceptibility test result is “R” under setting [1]; “R” under setting [2]; “R” under setting [3]; “R” under setting [4]; “R” under setting [5]; “R” under setting [6]. Besides, the antibiotic susceptibility test result under setting [7] is “R”, the antibiotic susceptibility test result under setting [8] is “R”, the antibiotic susceptibility test entry under setting [9] was “R” and the antibiotic susceptibility test result under setting [10] was “R”.

On to spiramycin [SP100], for which the antibiotic susceptibility test result is, setting by setting: under setting [1], “R”; under setting [2], “S”; under setting [3], “I”; under setting [4], “S”; under setting [5], “I”; under setting [6], “I”. Further, the antibiotic susceptibility test entry under setting [7] is “I”, the antibiotic susceptibility test result under setting [8] is given as “I”, the antibiotic susceptibility test result under setting [9] is “I” and the antibiotic susceptibility test entry under setting [10] is reported as “R”.

bacitracin [B2]: the antibiotic susceptibility test result is given as “R”.

`CN(C)[C@@H]1C(O)=C(C(N)=O)C(=O)[C@@]2(O)C(O)=C3C(=O)c4c(O)ccc(Cl)c4[C@@](C)(O)[C@H]3C[C@@H]12` [A30, chlorotetracycline]: the antibiotic susceptibility test entry is given as “S” under setting [1]; “I” under setting [2]; “I” under setting [3]; “R” under setting [4]; “S” under setting [5]; “S” under setting [6]. Further, the antibiotic susceptibility test result is, setting by setting: under setting [7], “R”; under setting [8], “R”; under setting [9], “S”; under setting [10], “I”.

For `CCN1CCN(C(=O)N[C@@H](C(=O)N[C@@H]2C(=O)N3[C@@H]2SC(C)(C)[C@@H]3C(=O)O)c2ccccc2)C(=O)C1=O` [PIP100, piperacillin], the antibiotic susceptibility test result under setting [1] is listed as “R”; the antibiotic susceptibility test entry under setting [2] is listed as “S”; the antibiotic susceptibility test entry under setting [3] is recorded as “R”; the antibiotic susceptibility test entry under setting [4] is on record as “R”; the antibiotic susceptibility test result under setting [5] is “R”; the antibiotic susceptibility test result under setting [6] is reported as “R”. Further, the antibiotic susceptibility test entry under setting [7] was “R”, the antibiotic susceptibility test entry under setting [8] was “R”, the antibiotic susceptibility test entry under setting [9] is “R” and the antibiotic susceptibility test result under setting [10] is “R”.

For `CN(C)[C@@H]1C(O)=C(C(N)=O)C(=O)[C@@]2(O)C(O)=C3C(=O)c4c(O)cccc4[C@@](C)(O)[C@H]3C[C@@H]12` [TE30, tetracycline], the antibiotic susceptibility test entry is, setting by setting: under setting [1], “I”; under setting [2], “I”; under setting [3], “I”; under setting [4], “S”; under setting [5], “S”; under setting [6], “S”. Besides, the antibiotic susceptibility test result is on record as “I” under setting [7], “R” under setting [8], “S” under setting [9] and “R” under setting [10].

With `CCC[C@@H]1C[C@@H](C(=O)N[C@@H]([C@H]2O[C@H](SC)[C@H](O)[C@@H](O)[C@H]2O)[C@@H](C)O)N(C)C1` [MY2, lincomycin], the antibiotic susceptibility test result was “R” under setting [1]; “R” under setting [2]; “I” under setting [3]; “R” under setting [4]; “R” under setting [5]; “S” under setting [6]. Also, the antibiotic susceptibility test result reads like this: under setting [7], “S”; under setting [8], “S”; under setting [9], “S”; under setting [10], “R”.

`C[C@H]1[C@H](NC(=O)/C(=N\OC(C)(C)C(=O)O)c2csc(N)n2)C(=O)N1S(=O)(=O)O` [ATM30, aztreonam]: the antibiotic susceptibility test result under setting [1] was “R”; the antibiotic susceptibility test result under setting [2] is on record as “R”; the antibiotic susceptibility test entry under setting [3] is “R”; the antibiotic susceptibility test result under setting [4] was “R”; the antibiotic susceptibility test result under setting [5] is on record as “R”; the antibiotic susceptibility test result under setting [6] is recorded as “R”. Also, the antibiotic susceptibility test result is, setting by setting: under setting [7], “R”; under setting [8], “R”; under setting [9], “R”; under setting [10], “R”.

`CN[C@H](CC(C)C)C(=O)N[C@H]1C(=O)N[C@@H](CC(N)=O)C(=O)N[C@H]2C(=O)N[C@H]3C(=O)N[C@H](C(=O)N[C@H](C(=O)O)c4cc(O)cc(O)c4-c4cc3ccc4O)[C@H](O)c3ccc(c(Cl)c3)Oc3cc2cc(c3O[C@@H]2O[C@H](CO)[C@@H](O)[C@H](O)[C@H]2O[C@H]2C[C@](C)(N)[C@H](O)[C@H](C)O2)Oc2ccc(cc2Cl)[C@H]1O` [VA30, vancomycin]: the antibiotic susceptibility test result under setting [1] is reported as “I”; the antibiotic susceptibility test result under setting [2] is recorded as “I”; the antibiotic susceptibility test result under setting [3] is recorded as “I”; the antibiotic susceptibility test result under setting [4] is reported as “S”; the antibiotic susceptibility test entry under setting [5] is on record as “S”; the antibiotic susceptibility test entry under setting [6] is listed as “I”. The antibiotic susceptibility test entry was “I” under setting [7], “I” under setting [8], “I” under setting [9] and “R” under setting [10].
